Measured values published in the supplement of paper PMC11741623.
Some of the results follow. Interaction screen of human proteins with wild-type SARS-CoV-2 proteins by split-DHFR complementation in yeast, 1 µg/mL methotrexate. Value = fitness of the pair (three or more lineages) minus that of the viral protein without a human partner, on a scale set by negative (0) and fused positive (1) controls, mean of up to three cultures; higher = more likely to interact. Active = false discovery rate below 0.05 (one-sided t-test) in at least one culture. Nearly all pairs are not hits, and differences among them are mostly noise (correlation between cultures about 0.3); most hits were seen in one culture only. Human sequences are the Swiss-Prot entries looked up by gene name; the clone may be another isoform. NSP2 values were corrected by the authors for a growth advantage. Listed are human proteins with a hit and a random twelfth of the others.

B1: TRIP4, Q15650 (protein)
chain: MAVAGAVSGEPLVHWCTQQLRKTFGLDVSEEIIQYVLSIESAEEIREYVTDLLQGNEGKKGQFIEELITKWQKNDQELISDPLQQCFKKDEILDGQKSGDHLKRGRKKGRNRQEVPAFTEPDTTAEVKTPFDLAKAQENSNSVKKKTKFVNLYTREGQDRLAVLLPGRHPCDCLGQKHKLINNCLICGRIVCEQEGSGPCLFCGTLVCTHEEQDILQRDSNKSQKLLKKLMSGVENSGKVDISTKDLLPHQELRIKSGLEKAIKHKDKLLEFDRTSIRRTQVIDDESDYFASDSNQWLSKLERETLQKREEELRELRHASRLSKKVTIDFAGRKILEEENSLAEYHSRLDETIQAIANGTLNQPLTKLDRSSEEPLGVLVNPNMYQSPPQWVDHTGAASQKKAFRSSGFGLEFNSFQHQLRIQDQEFQEGFDGGWCLSVHQPWASLLVRGIKRVEGRSWYTPHRGRLWIAATAKKPSPQEVSELQATYRLLRGKDVEFPNDYPSGCLLGCVDLIDCLSQKQFKEQFPDISQESDSPFVFICKNPQEMVVKFPIKGNPKIWKLDSKIHQGAKKGLMKQNKAV
B2: WDR33, Q9C0J8 (protein)
chain: MATEIGSPPRFFHMPRFQHQAPRQLFYKRPDFAQQQAMQQLTFDGKRMRKAVNRKTIDYNPSVIKYLENRIWQRDQRDMRAIQPDAGYYNDLVPPIGMLNNPMNAVTTKFVRTSTNKVKCPVFVVRWTPEGRRLVTGASSGEFTLWNGLTFNFETILQAHDSPVRAMTWSHNDMWMLTADHGGYVKYWQSNMNNVKMFQAHKEAIREASFSPTDNKFATCSDDGTVRIWDFLRCHEERILRGHGADVKCVDWHPTKGLVVSGSKDSQQPIKFWDPKTGQSLATLHAHKNTVMEVKLNLNGNWLLTASRDHLCKLFDIRNLKEELQVFRGHKKEATAVAWHPVHEGLFASGGSDGSLLFWHVGVEKEVGGMEMAHEGMIWSLAWHPLGHILCSGSNDHTSKFWTRNRPGDKMRDRYNLNLLPGMSEDGVEYDDLEPNSLAVIPGMGIPEQLKLAMEQEQMGKDESNEIEMTIPGLDWGMEEVMQKDQKKVPQKKVPYAKPIPAQFQQAWMQNKVPIPAPNEVLNDRKEDIKLEEKKKTQAEIEQEMATLQYTNPQLLEQLKIERLAQKQVEQIQPPPSSGTPLLGPQPFPGQGPMSQIPQGFQQPHPSQQMPMNMAQMGPPGPQGQFRPPGPQGQMGPQGPPLHQGGGGPQGFMGPQGPQGPPQGLPRPQDMHGPQGMQRHPGPHGPLGPQGPPGPQGSSGPQGHMGPQGPPGPQGHIGPQGPPGPQGHLGPQGPPGTQGMQGPPGPRGMQGPPHPHGIQGGPGSQGIQGPVSQGPLMGLNPRGMQGPPGPRENQGPAPQGMIMGHPPQEMRGPHPPGGLLGHGPQEMRGPQEIRGMQGPPPQGSMLGPPQELRGPPGSQSQQGPPQGSLGPPPQGGMQGPPGPQGQQNPARGPHPSQGPIPFQQQKTPLLGDGPRAPFNQEGQSTGPPPLIPGLGQQGAQGRIPPLNPGQGPGPNKGDSRGPPNHHMGPMSERRHEQSGGPEHGPERGPFRGGQDCRGPPDRRGPHPDFPDDFSRPDDFHPDKRFGHRLREFEGRGGPLPQEEKWRRGGPGPPFPPDHREFSEGDGRGAARGPPGAWEGRRPGDERFPRDPEDPRFRGRREESFRRGAPPRHEGRAPPRGRDGFPGPEDFGPEENFDASEEAARGRDLRGRGRGTPRGGRKGLLPTPDEFPRFEGGRKPDSWDGNREPGPGHEHFRDTPRPDHPPHDGHSPASRERSSSLQGMDMASLPPRKRPWHDGPGTSEHREMEAPGGPSEDRGGKGRGGPGPAQRVPKSGRSSSLDGEHHDGYHRDEPFGGPPGSGTPSRGGRSGSNWGRGSNMNSGPPRRGASRGGGRGR
B3: DEF8, Q6ZN54 (protein)
chain: MAILSLRAPGPWQAMQVWADRTLLTPHTGVTSQVLGVAAAVMTPLPGGHAAGRTREARWDAMEYDEKLARFRQAHLNPFNKQSGPRQHEQGPGEEVPDVTPEEALPELPPGEPEFRCPERVMDLGLSEDHFSRPVGLFLASDVQQLRQAIEECKQVILELPEQSEKQKDAVVRLIHLRLKLQELKDPNEDEPNIRVLLEHRFYKEKSKSVKQTCDKCNTIIWGLIQTWYTCTGCYYRCHSKCLNLISKPCVSSKVSHQAEYELNICPETGLDSQDYRCAECRAPISLRGVPSEARQCDYTGQYYCSHCHWNDLAVIPARVVHNWDFEPRKVSRCSMRYLALMVSRPVLRLREINPLLFSYVEELVEIRKLRQDILLMKPYFITCREAMEARLLLQLQDRQHFVENDEMYSVQDLLDVHAGRLGCSLTEIHTLFAKHIKLDCERCQAKGFVCELCREGDVLFPFDSHTSVCADCSAVFHRDCYYDNSTTCPKCARLSLRKQSLFQEPGPDVEA

Target: SARS-CoV-2 E
Assay: yeast fitness gain over the viral ORF with no human partner (scaled fitness); higher = more likely to interact
Procedure: (§1)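 Split mouse DHFR complementation in pooled diploid yeast: human ORFeome clones carry one fragment and viral ORFs the other; barcoded lineages compete in 1 µg/mL methotrexate and fitness is read by barcode sequencing in up to three cultures.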

Row | Binder | yeast fitness gain
1 | B1 | inactive: -0.329
2 | B2 | inactive: -0.211
3 | B3 | inactive: -0.04

Target: SARS-CoV-2 M
Assay: as above
Procedure: as §1

Row | Binder | yeast fitness gain
4 | B1 | inactive: 0.0203
5 | B2 | inactive: 0.00736
6 | B3 | inactive: 0.0665

Target: SARS-CoV-2 NSP1
Assay: as above
Procedure: as §1

Row | Binder | yeast fitness gain
7 | B1 | inactive: 0.0786
8 | B2 | inactive: 0.00377
9 | B3 | inactive: 0.0737

Target: SARS-CoV-2 NSP10
Assay: as above
Procedure: as §1

Row | Binder | yeast fitness gain
10 | B1 | inactive: 0.000979
11 | B2 | inactive: 0.0456
12 | B3 | inactive: 0.0586

Target: SARS-CoV-2 NSP12
Assay: as above
Procedure: as §1

Row | Binder | yeast fitness gain
13 | B1 | inactive: 0.0706
14 | B2 | inactive: 0.0157
15 | B3 | inactive: 0.103

Target: SARS-CoV-2 NSP13
Assay: as above
Procedure: as §1

Row | Binder | yeast fitness gain
16 | B1 | inactive: 0.0623
17 | B2 | inactive: 0.0631
18 | B3 | inactive: 0.0537

Target: SARS-CoV-2 NSP14
Assay: as above
Procedure: as §1

Row | Binder | yeast fitness gain
19 | B1 | inactive: 0.0355
20 | B2 | inactive: 0.0284
21 | B3 | inactive: 0.19

Target: SARS-CoV-2 NSP15
Assay: as above
Procedure: as §1

Row | Binder | yeast fitness gain
22 | B1 | inactive: 0.0291
23 | B2 | inactive: -0.0786

Target: SARS-CoV-2 NSP16
Assay: as above
Procedure: as §1

Row | Binder | yeast fitness gain
24 | B1 | inactive: -0.00205
25 | B2 | inactive: -0.134

Target: SARS-CoV-2 NSP2
Assay: as above
Procedure: as §1

Row | Binder | yeast fitness gain
26 | B1 | inactive: -0.098
27 | B2 | inactive: -0.178
28 | B3 | inactive: -0.149

Target: SARS-CoV-2 NSP4
Assay: as above
Procedure: as §1

Row | Binder | yeast fitness gain
29 | B1 | inactive: 0.11
30 | B2 | inactive: 0.0397
31 | B3 | inactive: 0.0864

Target: SARS-CoV-2 NSP5
Assay: as above
Procedure: as §1

Row | Binder | yeast fitness gain
32 | B1 | inactive: 0.0276
33 | B2 | inactive: -0.0601
34 | B3 | inactive: 0.0692

Target: SARS-CoV-2 NSP6
Assay: as above
Procedure: as §1

Row | Binder | yeast fitness gain
35 | B1 | inactive: -0.0418
36 | B2 | inactive: 0.135
37 | B3 | inactive: 0.0742

Target: SARS-CoV-2 NSP7
Assay: as above
Procedure: as §1

Row | Binder | yeast fitness gain
38 | B1 | inactive: 0.0286
39 | B2 | inactive: 0.0158
40 | B3 | inactive: -0.0692

Target: SARS-CoV-2 NSP8
Assay: as above
Procedure: as §1

Row | Binder | yeast fitness gain
41 | B1 | inactive: 0.0826
42 | B2 | inactive: 0.0204
43 | B3 | inactive: 0.0944

Target: SARS-CoV-2 NSP9
Assay: as above
Procedure: as §1

Row | Binder | yeast fitness gain
44 | B1 | inactive: 0.00301
45 | B2 | inactive: 0.0511
46 | B3 | inactive: 0.144

Target: SARS-CoV-2 ORF10
Assay: as above
Procedure: as §1

Row | Binder | yeast fitness gain
47 | B1 | inactive: 0.00559
48 | B2 | inactive: 0.00745
49 | B3 | inactive: 0.0421

Target: SARS-CoV-2 ORF3B
Assay: as above
Procedure: as §1

Row | Binder | yeast fitness gain
50 | B1 | inactive: 0.00286
51 | B2 | inactive: -0.00633
52 | B3 | inactive: -0.000483

Target: SARS-CoV-2 ORF6
Assay: as above
Procedure: as §1

Row | Binder | yeast fitness gain
53 | B1 | inactive: -0.0571
54 | B2 | inactive: -0.00812
55 | B3 | inactive: 0.0822

Target: SARS-CoV-2 ORF7A
Assay: as above
Procedure: as §1

Row | Binder | yeast fitness gain
56 | B1 | inactive: 0.0566
57 | B2 | inactive: 0.000619
58 | B3 | inactive: -0.0973

Target: SARS-CoV-2 ORF7B
Assay: as above
Procedure: as §1

Row | Binder | yeast fitness gain
59 | B1 | inactive: 0.0413
60 | B2 | inactive: -0.0201
61 | B3 | inactive: -0.0518

Target: SARS-CoV-2 ORF8
Assay: as above
Procedure: as §1

Row | Binder | yeast fitness gain
62 | B1 | inactive: 0.0286
63 | B2 | inactive: -0.0145
64 | B3 | inactive: 0.0113

Target: SARS-CoV-2 ORF9B
Assay: as above
Procedure: as §1

Row | Binder | yeast fitness gain
65 | B1 | inactive: -0.0106
66 | B2 | inactive: 0.0378
67 | B3 | inactive: 0.0186

Target: SARS-CoV-2 ORF9Bwu (the 73-codon ORF)
Assay: as above
Procedure: as §1

Row | Binder | yeast fitness gain
68 | B1 | inactive: -0.0564
69 | B2 | inactive: 0.00547
70 | B3 | inactive: 0.0807

Target: SARS-CoV-2 S
Assay: as above
Procedure: as §1

Row | Binder | yeast fitness gain
71 | B1 | inactive: -0.00419
72 | B2 | inactive: 0.106
73 | B3 | inactive: 0.213

Target: SARS-CoV-2 N
Assay: as above
Procedure: as §1

Row | Binder | yeast fitness gain
74 | B2 | inactive: 0.0228

Target: SARS-CoV-2 ORF3A
Assay: as above
Procedure: as §1

Row | Binder | yeast fitness gain
75 | B2 | inactive: 0.00944
